Results reported in PubChem BioAssay AID504333 (National Center for Advancing Translational Sciences (NCATS), 2011).
The campaign covered roughly 360,000 compounds. About 16,000 (4.4%) were called active. This list was built around the results that the source calls inconclusive (neither active nor inactive); the mix of calls is not that of the screen. Calls follow the shape of the dose curve; as a rule, active = well fitted inhibition curve with a large enough effect; inconclusive = small, poorly fitted or top-dose-only effect; inactive = no such curve, though single readings can be large or run the other way. Potencies of inconclusive entries are doubtful fits and often do not repeat.

Each molecule was assayed against Bromodomain adjacent to zinc finger domain protein 2B (Homo sapiens) (UniProt Q9UIF8) (assay: qHTS Assay for Inhibitors of BAZ2B). Conditions: AlphaScreen BAZ2B-H3K14Ac peptide displacement; series mostly up to 114 µM.
Chain of UniProt Q9UIF8 (Q9UIF8 whole entry, looked up, the tested form may be a part): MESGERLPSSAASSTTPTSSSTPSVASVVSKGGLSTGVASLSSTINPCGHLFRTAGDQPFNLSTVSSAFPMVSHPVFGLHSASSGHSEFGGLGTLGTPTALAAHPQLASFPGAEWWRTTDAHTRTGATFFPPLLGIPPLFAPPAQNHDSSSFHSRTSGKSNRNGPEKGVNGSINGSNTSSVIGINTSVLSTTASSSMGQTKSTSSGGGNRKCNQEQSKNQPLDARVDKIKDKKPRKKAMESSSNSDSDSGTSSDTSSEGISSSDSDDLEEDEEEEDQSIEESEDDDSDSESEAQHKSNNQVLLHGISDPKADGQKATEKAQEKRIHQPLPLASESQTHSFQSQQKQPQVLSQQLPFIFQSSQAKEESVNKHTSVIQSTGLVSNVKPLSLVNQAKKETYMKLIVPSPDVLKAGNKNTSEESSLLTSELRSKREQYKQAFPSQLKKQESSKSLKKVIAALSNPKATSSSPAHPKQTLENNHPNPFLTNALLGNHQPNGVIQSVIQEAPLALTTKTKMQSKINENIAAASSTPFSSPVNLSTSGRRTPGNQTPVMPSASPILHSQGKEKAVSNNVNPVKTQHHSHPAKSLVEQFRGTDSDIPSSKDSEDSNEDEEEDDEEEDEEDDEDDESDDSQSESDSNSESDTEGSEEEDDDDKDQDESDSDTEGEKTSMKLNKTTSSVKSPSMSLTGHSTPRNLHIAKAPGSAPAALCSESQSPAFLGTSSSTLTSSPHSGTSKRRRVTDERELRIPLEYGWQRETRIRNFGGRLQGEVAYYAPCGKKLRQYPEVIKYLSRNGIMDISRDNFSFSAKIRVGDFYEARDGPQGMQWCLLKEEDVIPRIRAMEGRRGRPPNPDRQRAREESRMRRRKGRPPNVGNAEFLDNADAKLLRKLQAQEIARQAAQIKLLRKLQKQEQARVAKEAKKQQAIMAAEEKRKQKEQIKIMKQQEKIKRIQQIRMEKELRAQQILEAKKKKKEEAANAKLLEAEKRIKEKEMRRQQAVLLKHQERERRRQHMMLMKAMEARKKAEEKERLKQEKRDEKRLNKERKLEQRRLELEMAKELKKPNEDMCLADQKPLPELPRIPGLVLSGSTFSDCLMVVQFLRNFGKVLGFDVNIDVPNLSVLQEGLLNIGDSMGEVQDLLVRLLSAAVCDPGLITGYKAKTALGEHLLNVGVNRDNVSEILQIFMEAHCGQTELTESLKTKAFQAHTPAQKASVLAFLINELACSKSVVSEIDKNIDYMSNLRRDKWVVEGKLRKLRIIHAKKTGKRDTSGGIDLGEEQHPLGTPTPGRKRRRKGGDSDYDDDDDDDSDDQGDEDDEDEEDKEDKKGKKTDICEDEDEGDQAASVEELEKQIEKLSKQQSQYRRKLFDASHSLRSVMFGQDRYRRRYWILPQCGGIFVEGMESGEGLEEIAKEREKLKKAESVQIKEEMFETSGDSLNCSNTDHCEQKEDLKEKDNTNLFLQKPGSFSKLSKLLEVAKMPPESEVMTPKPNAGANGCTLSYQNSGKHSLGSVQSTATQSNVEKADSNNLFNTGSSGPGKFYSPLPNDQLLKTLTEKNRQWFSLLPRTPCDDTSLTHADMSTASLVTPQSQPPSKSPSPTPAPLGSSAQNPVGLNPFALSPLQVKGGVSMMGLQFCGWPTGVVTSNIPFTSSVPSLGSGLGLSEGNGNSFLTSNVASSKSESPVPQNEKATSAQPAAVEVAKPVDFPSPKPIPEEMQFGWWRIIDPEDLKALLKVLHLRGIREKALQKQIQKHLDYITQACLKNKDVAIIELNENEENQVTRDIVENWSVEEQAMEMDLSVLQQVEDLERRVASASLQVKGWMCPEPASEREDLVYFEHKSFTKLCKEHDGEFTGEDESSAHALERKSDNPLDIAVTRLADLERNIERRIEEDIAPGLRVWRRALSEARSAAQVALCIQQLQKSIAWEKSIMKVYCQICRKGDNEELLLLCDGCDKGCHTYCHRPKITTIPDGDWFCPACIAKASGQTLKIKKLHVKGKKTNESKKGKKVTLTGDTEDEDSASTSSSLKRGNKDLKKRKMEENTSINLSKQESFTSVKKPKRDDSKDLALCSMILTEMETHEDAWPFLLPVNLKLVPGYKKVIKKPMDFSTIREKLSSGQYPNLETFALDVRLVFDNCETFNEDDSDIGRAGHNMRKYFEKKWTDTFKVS
Procedure, shortened: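 In this displacement format the biotinylated H3(5-23) peptide acetylated at Lys14 serves as ligand at 50 nM, with BAZ2B at 50 nM in PBS pH 7.4 containing 0.01% Tween-20. Donor and acceptor beads are 10 ug/mL final.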
Also: nearly all actives have a fitted effect of over 60% in size.
Potency is read from the fitted curve at half-maximal effect; tags tell the direction and shape of the fitted curve.

Q: CC(=O)Nc1ccc(C(=S)NCc2ccco2)cc1 was tested. Which Potency did it give?
A: inconclusive: 50.1 µM [inhibitor, partial curve]

Q: For Cc1cccc(NC(=O)C(=O)NNC(=O)c2ccc(C(C)(C)C)cc2)c1, which Potency is on record?
A: inactive

Q: With Cc1nnc(NC2=NCCC2)o1 as the molecule, how does the Potency read?
A: active: 79.4 µM

Q: For Oc1ccccc1C1Nc2cccc3cccc(c23)N1, which Potency is on record?
A: active: 35.5 µM

Q: Which Potency does the source give for CC(=O)C1=C(c2ccc(Br)cc2)C(=O)c2ccccc2C1=O here?
A: active: 25.1 µM

Q: COc1cc(CN2CCC(C(=O)N3CCN(c4ccccc4F)CC3)CC2)cc(OC)c1OC was tested. Which Potency did it give?
A: active: 50.1 µM

Q: For CN(Cc1ccccc1)S(=O)(=O)c1ccc(NS(=O)(=O)Cc2ccccc2)cc1, which Potency is on record?
A: inconclusive: 7.08 µM [inhibitor, single point]

Q: How did the Potency turn out when CCC1C/C(=C/c2ccco2)C(=O)/C(=C/c2ccco2)C1 (configuration not stated) was run?
A: active: 28.2 µM

Q: Which Potency does the source give for Cc1[nH]c2ccccc2c1-c1nc(N)sc1C here?
A: inconclusive: 0.708 µM [inhibitor, full curve, poor fit]

Q: With Cc1ccc2c(c1)c1c(c(=O)n(-c3ccccc3)c(=O)n1CC(=O)N1CCCC1)n2C as the molecule, how does the Potency read?
A: inactive

Q: For Cc1cccc(NC(=O)C2CCN(C(=O)c3ccc(F)cc3)CC2)n1, which Potency is on record?
A: inactive

Q: CCC(=O)c1ccc(N2CCN(C(=O)c3cc([N+](=O)[O-])ccc3F)CC2)c(F)c1 was tested. Which Potency did it give?
A: inconclusive: 79.4 µM [inhibitor, single point]

Q: How did the Potency turn out when Cc1cccc(/C=C2/C(=O)/C(=C/c3ccccc3C)C3CCC2N3C)c1 (configuration not stated) was run?
A: inconclusive: 14.1 µM [inhibitor, partial curve]

Q: With CCOC(=O)c1c(S(=O)(=O)N2CCC(C(=O)Nc3ccccc3OC)CC2)c(C)n(CC)c1C as the molecule, how does the Potency read?
A: inactive

Q: With CC1=C(C(=O)OCc2ccccc2)C(c2ccc(Cl)cc2Cl)NC(=O)N1CCCCCC(=O)O (configuration not stated) as the molecule, how does the Potency read?
A: inconclusive: 89.1 µM [inhibitor, single point]

Q: With Cc1cc(C(=O)COC(=O)C(C)NC(N)=O)c(C)n1Cc1ccco1 (configuration not stated) as the molecule, how does the Potency read?
A: inconclusive: 56.2 µM [inhibitor, partial curve]

Q: How did the Potency turn out when COc1ccc(CCNC(=O)Cn2cc(C(=O)c3ccccc3)c(=O)c3ccc(C)nc32)cc1OC was run?
A: inactive

Q: Oc1c(Br)cc(/C=N/n2c(-c3ccccc3)n[nH]c2=S)c(Br)c1O was tested. Which Potency did it give?
A: active: 1.78 µM

Q: O=C1C=C(O)c2cccc3cccc1c23 was tested. Which Potency did it give?
A: inactive

Q: With CCOc1ccc(-n2c(-c3ccc(C)cc3)nc3c(cnn3-c3ccccc3)c2=O)cc1 as the molecule, how does the Potency read?
A: inactive

Q: For Cc1ccccc1-c1n[nH]c(=S)n1/N=C/C=C/c1ccco1, which Potency is on record?
A: active: 44.7 µM

Q: How did the Potency turn out when Cc1ccc(NC(=O)CCn2c(=O)c3cccn3c3ccccc32)c(Cl)c1 was run?
A: inactive
